Data published in the supplement of paper PMC8728848.
The list shows a part of the results.

Legend:
Test in all cases: glycan array binding signal (z-score within array); higher = stronger binding
Conditions in all cases: glycan notation: IUPAC condensed, linker removed
[1] = target: GalNAc(b1-4)Gal(b1-4)Glc
Summary of the method: (§1)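 From the Consortium for Functional Glycomics database, 3228 arrays were curated, keeping only those whose protein sequence was available. Binding is given as a within-array Z-score averaged across arrays sharing a protein sequence and across linkers. Negative Z-scores can be read as non-binding.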

[2] = target: GalNAc(b1-4)Gal3S(b1-4)Glc
Summary of the method: as §1

[3] = target: GalNAc3S(b1-4)Gal3S(b1-4)Glc
Summary of the method: as §1

[4] = target: Glc(a1-2)Glc
Summary of the method: as §1

[5] = target: Glc(a1-2)Glc(a1-3)Glc(a1-3)Man(a1-2)Man(a1-2)Man(a1-3)[Man(a1-3)[Man(a1-6)]Man(a1-6)]Man(b1-4)GlcNAc
Summary of the method: as §1

[6] = target: Glc(a1-3)Glc
Summary of the method: as §1

[7] = target: Glc(a1-3)Glc(a1-3)Man(a1-2)Man(a1-2)Man(a1-3)[Man(a1-2)Man(a1-3)[Man(a1-2)Man(a1-6)]Man(a1-6)]Man(b1-4)GlcNAc(b1-4)GlcNAc
Summary of the method: as §1

[8] = target: Glc(a1-3)Glc(a1-3)Man(a1-2)Man(a1-2)Man(a1-3)[Man(a1-3)[Man(a1-6)]Man(a1-6)]Man(b1-4)GlcNAc
Summary of the method: as §1

[9] = target: Glc(a1-3)Man(a1-2)Man(a1-2)Man(a1-3)[Man(a1-2)Man(a1-3)[Man(a1-2)Man(a1-6)]Man(a1-6)]Man(b1-4)GlcNAc(b1-4)GlcNAc
Summary of the method: as §1

[10] = target: Glc(a1-4)Glc
Summary of the method: as §1

[11] = target: Glc(a1-4)Glc(a1-4)Glc
Summary of the method: as §1

[12] = target: Glc(a1-4)Glc(a1-4)Glc(a1-4)Glc
Summary of the method: as §1

[13] = target: Glc(a1-4)Glc(a1-4)Glc(a1-4)Glc(a1-4)Glc
Summary of the method: as §1

[14] = target: Glc(a1-4)Glc(a1-4)Glc(a1-4)Glc(a1-4)Glc(a1-4)Glc
Summary of the method: as §1

[15] = target: Glc(a1-4)Glc(a1-4)Glc(a1-4)Glc(a1-4)Glc(a1-4)Glc(a1-4)Glc
Summary of the method: as §1

[16] = target: Glc(a1-4)Glc(a1-4)Glc(a1-4)Glc(a1-4)Glc(a1-4)Glc(a1-4)Glc(a1-4)Glc
Summary of the method: as §1

[17] = target: Glc(a1-4)Glc(a1-4)Glc(a1-4)Glc(a1-4)Glc(a1-4)Glc(a1-4)Glc(a1-4)Glc(a1-4)Glc
Summary of the method: as §1

[18] = target: Glc(a1-4)Glc(a1-4)Glc(a1-4)Glc(a1-4)Glc(a1-4)Glc(a1-4)Glc(a1-4)Glc(a1-4)Glc(a1-4)Glc
Summary of the method: as §1

[19] = target: Glc(a1-4)Glc(a1-4)Glc(a1-4)Glc(a1-4)Glc(a1-4)Glc(a1-4)Glc(a1-4)Glc(a1-4)Glc(a1-4)Glc(a1-4)Glc
Summary of the method: as §1

[20] = target: Glc(a1-4)Glc(a1-4)Glc(a1-4)Glc(a1-4)Glc(a1-4)Glc(a1-4)Glc(a1-4)Glc(a1-4)Glc(a1-4)Glc(a1-4)Glc(a1-4)Glc
Summary of the method: as §1

[21] = target: Glc(a1-4)Glc(a1-4)Glc(a1-4)Glc(a1-4)Glc(a1-4)Glc(a1-4)Glc(a1-4)Glc(a1-4)Glc(a1-4)Glc(a1-4)Glc(a1-4)Glc(a1-4)Glc
Summary of the method: as §1

[22] = target: Glc(a1-6)Glc
Summary of the method: as §1

[23] = target: Glc(a1-6)Glc(a1-4)Glc(a1-4)Glc
Summary of the method: as §1

[24] = target: Glc(a1-6)Glc(a1-6)Glc
Summary of the method: as §1

[25] = target: Glc(a1-6)Glc(a1-6)Glc(a1-6)Glc
Summary of the method: as §1

[26] = target: Glc(a1-6)Glc(a1-6)Glc(a1-6)Glc(a1-6)Glc
Summary of the method: as §1

[27] = target: Glc(a1-6)Glc(a1-6)Glc(a1-6)Glc(a1-6)Glc(a1-6)Glc
Summary of the method: as §1

[28] = target: Glc(a1-6)Glc(a1-6)Glc(a1-6)Glc(a1-6)Glc(a1-6)Glc(a1-6)Glc
Summary of the method: as §1

[29] = target: Glc(a1-6)Glc(a1-6)Glc(a1-6)Glc(a1-6)Glc(a1-6)Glc(a1-6)Glc(a1-6)Glc
Summary of the method: as §1

[30] = target: Glc(a1-6)Glc(a1-6)Glc(a1-6)Glc(a1-6)Glc(a1-6)Glc(a1-6)Glc(a1-6)Glc(a1-6)Glc
Summary of the method: as §1

[31] = target: Glc(a1-6)Glc(a1-6)Glc(a1-6)Glc(a1-6)Glc(a1-6)Glc(a1-6)Glc(a1-6)Glc(a1-6)Glc(a1-6)Glc
Summary of the method: as §1

[32] = target: Glc(a1-6)Glc(a1-6)Glc(a1-6)Glc(a1-6)Glc(a1-6)Glc(a1-6)Glc(a1-6)Glc(a1-6)Glc(a1-6)Glc(a1-6)Glc
Summary of the method: as §1

[33] = target: Glc(a1-6)Glc(a1-6)Glc(a1-6)Glc(a1-6)Glc(a1-6)Glc(a1-6)Glc(a1-6)Glc(a1-6)Glc(a1-6)Glc(a1-6)Glc(a1-6)Glc
Summary of the method: as §1

[34] = target: Glc(a1-6)Glc(a1-6)Glc(a1-6)Glc(a1-6)Glc(a1-6)Glc(a1-6)Glc(a1-6)Glc(a1-6)Glc(a1-6)Glc(a1-6)Glc(a1-6)Glc(a1-6)Glc
Summary of the method: as §1

[35] = target: Glc(b1-2)Glc
Summary of the method: as §1

[36] = target: Glc(b1-3)Glc
Summary of the method: as §1

[37] = target: Glc(b1-3)Glc(b1-3)Glc
Summary of the method: as §1

[38] = target: Glc(b1-3)Glc(b1-3)Glc(b1-3)Glc
Summary of the method: as §1

[39] = target: Glc(b1-3)Glc(b1-3)Glc(b1-3)Glc(b1-3)Glc
Summary of the method: as §1

[40] = target: Glc(b1-3)Glc(b1-3)Glc(b1-3)Glc(b1-3)Glc(b1-3)Glc
Summary of the method: as §1

[41] = target: Glc(b1-3)Glc(b1-3)Glc(b1-3)Glc(b1-3)Glc(b1-3)Glc(b1-3)Glc
Summary of the method: as §1

[42] = target: Glc(b1-3)Glc(b1-3)Glc(b1-3)Glc(b1-3)Glc(b1-3)Glc(b1-3)Glc(b1-3)Glc
Summary of the method: as §1

[43] = target: Glc(b1-3)Glc(b1-3)Glc(b1-3)Glc(b1-3)Glc(b1-3)Glc(b1-3)Glc(b1-3)Glc(b1-3)Glc
Summary of the method: as §1

[44] = target: Glc(b1-3)Glc(b1-3)Glc(b1-3)Glc(b1-3)Glc(b1-3)Glc(b1-3)Glc(b1-3)Glc(b1-3)Glc(b1-3)Glc
Summary of the method: as §1

[45] = target: Glc(b1-3)Glc(b1-3)Glc(b1-3)Glc(b1-3)Glc(b1-3)Glc(b1-3)Glc(b1-3)Glc(b1-3)Glc(b1-3)Glc(b1-3)Glc
Summary of the method: as §1

Measured: glycan array binding signal (z-score)

B1: MIC4-A5 (Toxoplasma gondii), Q9XZH7 (protein)
chain: SPDFHDEVECVHTGNIGSKAQTIGEVKRASSLSECRARCQAEKECSHYTYNVKSGLCYPKRGKPQFYKYLGDMTGSRTCDTS
-0.303: [16]
-0.197: [2]
-0.307: [12]
-0.32: [34] | [35]
-0.319: [1] | [7]
-0.313: [11] | [13]
-0.309: [19]
-0.301: [15] | [36]
-0.323: [3] | [4] | [5] | [8] | [9] | [24] | [25] | [26] | [27] | [28] | [29] | [30] | [31] | [32] | [33] | [37] | [38] | [39] | [40] | [41] | [42] | [43] | [44] | [45]
-0.283: [14]
-0.317: [17] | [23]
-0.299: [10]
-0.305: [18] | [21]
-0.306: [6] | [20]
-0.316: [22]
